Laboratory results reported in PubChem BioAssay AID1345082 (National Center for Advancing Translational Sciences (NCATS), 2018).
Out of some 94,000 compounds screened, about 4,000 (4.3%) were called active. This list was built around the results that the source calls inconclusive (neither active nor inactive); the mix of calls is not that of the screen. The call rests on the fitted dose curve; in most records, active means well fitted inhibition curve with a large enough effect; inconclusive means small, poorly fitted or top-dose-only effect; inactive means no such curve, though single readings can be large or run the other way. Potencies of inconclusive entries are doubtful fits and often do not repeat.

Assay: Cytotoxic Profiling in NIH 3T3 Cell Line of Diverse Libraries Using Quantitative High-Throughput Screening; further: nearly all actives have a fitted effect of over 55% in size
Conditions: NIH 3T3 viability, CellTiter-Glo ATP luminescence, 48-72 h; activity change, negative = cytotoxicity: at 96.7 µM (top of the series) unless noted; series mostly up to 96.7 µM
Outline: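 Viability of NIH 3T3 cells after 48 or 72 hr compound treatment at 37 °C was assessed by CellTiter-Glo, with luminescence imaged following a 10 min room-temperature step.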
On the % scale 0 is the no-effect control and ±100 the full control effect; potency means the concentration at half of the fitted maximal effect; tags describe the fitted curve by direction and shape.

| SMILES | Potency | activity change, negative = cytotoxicity |
| --- | --- | --- |
| COc1cccc(C(=O)Nc2cc(C3CC3)nn2-c2ccccc2)c1 | inconclusive: 100 µM [inhibitor, partial curve, poor fit] | – |
| CC1(COc2ccccc2)COc2ccc(C(=O)Nc3ccccc3)cc2N1 (centres undefined) | inconclusive: 70.8 µM [inhibitor, partial curve, poor fit] | – |
| Cc1cc2cc(-c3c(C)noc3C)nc(NC3CCN(C)CC3)c2o1 | active: 35.5 µM | – |
| CCC(CC)C(=O)NC[C@H]1O[C@@H](CC(=O)N2CCN(c3ccccn3)CC2)[C@H](O)[C@@H]1O | – | inactive: -24.7% [at 174 µM] |
| O=C1NC(=NC2CCCCC2)C2(CCCN(Cc3ccsc3)C2)N1c1cccnc1 (centres undefined) | inconclusive: 70.8 µM [inhibitor, single point] | – |
| CC(=O)NCc1nnc2n1C(C(=O)NCc1ccccc1Cl)CC2 (centres undefined) | inconclusive: 112 µM [inhibitor, partial curve, poor fit] | – |
| COc1cccc(-c2ccc(CN3CC4CCC(C3)N4c3ccc(C(F)(F)F)cc3)cc2)c1 | inactive | – |
| c1ccc(CN2CCNc3cnc(Nc4ccc(N5CCOCC5)cc4)cc3C2)cc1 | active: 39.8 µM | – |
| O=C(c1ccc2c(c1)OCO2)N1CCC2(CC1)NC(=O)N(c1ccccc1Cl)N2 | inconclusive: 44.7 µM [inhibitor, partial curve, poor fit] | – |
| Cc1cc(Cl)ccc1S(=O)(=O)N1CC(c2nc(Cc3ccccc3)no2)C1 | inconclusive: 50.1 µM [inhibitor, partial curve, poor fit] | – |
| O=c1ncn(CC2CC2)c2ccc(-c3ccc(F)cc3)nc12 | inconclusive: 112 µM [inhibitor, single point] | – |
| OCC1CN(Cc2ccc(Cl)cc2)CC12CCNCC2 (centres undefined) | inconclusive: 50.1 µM [inhibitor, partial curve, poor fit] | – |
| COc1cccc(CC2CN(Cc3ccc(F)cc3OC)CCO2)c1 (centres undefined) | – | inactive: -33.2% |
| C#CCN1C(=O)[C@]2(C)[C@H](c3ccccc31)[C@@H](C(N)=O)CN2C(=O)c1cccc(OC)c1 | – | inactive: -19% [at 46.1 µM] |
| O=[S+]([O-])(c1cccs1)N1CCCN(c2ccnc3ccnn23)CC1 | inconclusive: 39.8 µM [inhibitor, partial curve] | – |
| COc1ccc(-n2nc(C)c([C@@H]3C=C[C@@H](NS(=O)(=O)c4cccs4)C3)c2C)cc1 | inconclusive: 5.62 µM [inhibitor, full curve, poor fit] | – |
| Cc1cccc(C(=O)N2CC[C@H]3C(=O)NCCCCCCN(Cc4ccncc4)[C@@H]3C2)c1 | inconclusive: 44.7 µM [inhibitor, partial curve, poor fit] | – |
| O=C(Cc1ccc(O)cc1)N1CC(CNc2ccccc2)C2(C1)CN(c1ccccc1)C2 (centres undefined) | active: 31.6 µM | – |
| O=C(NC1CCCN(c2ccnc3ccnn23)C1)c1cccc(Cl)c1 (centres undefined) | inconclusive: 50.1 µM [inhibitor, partial curve, poor fit] | – |
| COc1cccc(CN2CC[C@@H]3C(=O)NCCCCCCN(Cc4ccncc4)[C@@H]3C2)c1 | inconclusive: 56.2 µM [inhibitor, partial curve, poor fit] | – |

| SMILES | Potency | activity change, negative = cytotoxicity |
| --- | --- | --- |
| COc1ccc(Cc2nc3nccc(-c4ccc(OC)cc4F)n3n2)cc1 | – | inactive: -14.5% |
| COc1ccc(-c2cc(N3CCN(C(=O)Cc4cccc(OC)c4)CC3)n[nH]2)cc1 | inconclusive: 31.6 µM [inhibitor, partial curve, poor fit] | – |
| O=C(NCc1ccccc1Cl)c1cc(-c2ccc(Cl)cc2Cl)c2nncn2n1 | inconclusive: 44.7 µM [inhibitor, partial curve, poor fit] | – |
| CN(C)c1cccc(NC(=O)c2ccnc(-c3nnc4ccc(N5CCOCC5)nn34)c2)c1 | inconclusive: 39.8 µM [inhibitor, partial curve, poor fit] | – |
| COc1ccc(-c2cc3c(ccn3C)c(C(=O)NCc3cccnc3)n2)cc1OC | inconclusive: 39.8 µM [inhibitor, full curve] | – |
| CCn1ccc2oc(C)c(C(=O)N3CCN(c4ccc(Cl)cc4)CC3)c2c1=O | inconclusive: 50.1 µM [inhibitor, partial curve, poor fit] | – |
| CN(Cc1cccnc1)C1CCCc2ccccc21 (centres undefined) | inconclusive: 79.4 µM [inhibitor, partial curve, poor fit] | – |
| CCn1cc(S(=O)(=O)N2CCCC2Cc2noc(-c3ccccc3)n2)cn1 (centres undefined) | inconclusive: 44.7 µM [inhibitor, partial curve, poor fit] | – |
| CCCCOC(=O)N1C[C@@H](CO)[C@@H]2Oc3c(C)cccc3[C@@H]21 | active: 39.8 µM | – |
| O=C(Nc1cccc(F)c1)N1CCc2c(nc3cc(-c4ccccc4Cl)[nH]n3c2=O)C1 | inconclusive: 79.4 µM [inhibitor, single point] | – |
| CN(C(=O)c1ccc[nH]c1=O)C1CCc2nn(C)c(=O)n2CC1 (centres undefined) | – | inactive: 0.503% |
| Cc1ccn2c(C(=O)N3CCCC(c4[nH]ncc4-c4ccccc4)C3)nnc2n1 (centres undefined) | – | inactive: -25.3% |
| Cn1ccnc1C(=O)N1CCCCCCNC(=O)[C@@H]2C[C@@H](c3nc(-c4cccnc4)no3)C[C@@H]21 | – | inactive: -16% |
| COC1CN(c2cccc(F)c2)C12CCN(S(=O)(=O)c1cccs1)CC2 (centres undefined) | inconclusive: 44.7 µM [inhibitor, partial curve, poor fit] | – |
| COCCCNC(=O)c1cccc2c1CCN2C(=O)Nc1cccc(C)c1 | inconclusive: 44.7 µM [inhibitor, partial curve, poor fit] | – |
| COc1ccc(N2CC(COc3ccccc3)Oc3ncccc3C2=O)cc1 (centres undefined) | inconclusive: 31.6 µM [inhibitor, partial curve] | – |
| C=CCOc1cccc(C(=O)N2CCC(Cc3ccc(OC)cc3)(C(=O)OCC)CC2)c1 | inconclusive: 56.2 µM [inhibitor, partial curve, poor fit] | – |
| COc1ccccc1-c1cccc(CN2CCC(N[S+](=O)([O-])CCC(F)(F)F)CC2)c1 | inconclusive: 50.1 µM [inhibitor, partial curve, poor fit] | – |
| CC(C)NC(=O)C1COC2(CCN(C(=O)C(C)(C)C)CC2)N1C(=O)c1ccc(F)cc1 (centres undefined) | – | inactive: -5.3% |
